{
  "source": "PubChem BioAssay AID652104",
  "about": "(National Center for Advancing Translational Sciences (NCATS), 2013)",
  "note": "Where “and” joins values, the source holds several entries; their conditions need not be identical. Equal values may be shown once. Hit rate of the full screen: of about 410,000 compounds, about 7,200 (1.8%) were called active. Inconclusive results, whose numbers are uncertain, are shown with a selection of clear calls. Calls come from the whole dose curve; as a rule, active = well fitted activation curve with a large enough effect; inconclusive = small, poorly fitted or top-dose-only effect, or another doubt; inactive = no such curve, though single readings can be large or run the other way. Potencies of inconclusive entries are left out as doubtful fits. Some compounds were tested as several samples or in several runs, with calls that do not always agree. Potency is the fitted concentration of half-maximal effect; tags give direction and shape of the fitted curve.",
  "data": [
    {"experiment": "qHTS of TDP-43 Inhibitors; note: nearly all actives have a fitted effect of over 50% in size; for growth rescue (activation): % of control where 0% means no effect", "conditions": "TDP-43 expressing yeast growth rescue, BacTiter-Glo, 24 h; growth rescue (activation): at 46.1 µM (top of the series) unless noted", "outline": "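Yeast cells expressing TDP-43 under galactose induction are exposed to compounds for 24 hr at 30 deg C. BacTiter-Glo luminescence measures growth, so protective compounds score as activators.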", "values": [
      {"molecule": "S=c1[nH]nc(-c2ccccn2)n1/N=C/c1ccc(-c2ccccc2Cl)o1", "Potency": "inconclusive [activator, single point]"},
      {"molecule": "CCCOc1cccc(C2c3c(oc4ccccc4c3=O)C(=O)N2c2nncs2)c1", "note": "(stereo not given)", "growth rescue (activation)": "inactive: -0.734%"},
      {"molecule": "O=C(OCc1ccccc1F)c1ccc2c(c1)OCCO2", "Potency": "inconclusive [activator, single point]"},
      {"molecule": "Cc1[nH]nc(N=CC2=C(O)CC(C)(C)CC2=O)c1-c1ccc(Cl)cc1", "Potency": "inactive and active: 15.8 µM"},
      {"molecule": "Cc1ccc2cccc(NC(=O)COc3ccccc3Cl)c2n1", "growth rescue (activation)": "inactive: 0%"},
      {"molecule": "CC(=O)N1CCc2c(sc3c2c(=O)n(-c2ccc(C)cc2)c(=O)n3Cc2c(F)cccc2Cl)C1", "growth rescue (activation)": "inactive: -17.6%"},
      {"molecule": "COc1ccccc1Cc1c(-c2cccc(Cl)c2)nc2ccc(Br)cn12", "Potency": "inconclusive [activator, single point]"},
      {"molecule": "COc1ccc(CNC(=O)c2cc(-c3ccc(OC)cc3)nc3n[nH]c(-c4cccc([N+](=O)[O-])c4)c23)cc1", "Potency": "inconclusive [activator, full curve]"},
      {"molecule": "CCc1ccc(NC(=O)c2cnn(-c3ccccc3)c2C)cc1", "Potency": "inconclusive [activator, partial curve]"},
      {"molecule": "COc1ccc(CN2CCc3c(c(=O)n4ncc(C(=O)N5CCN(c6ccc(F)cc6)CC5)c4n3C)C2)cc1", "Potency": "inconclusive [activator, partial curve]"},
      {"molecule": "COc1cc(-c2c(-c3cc(OC)c(OC)c(OC)c3)noc2C)ccc1F", "Potency": "inconclusive [activator, partial curve]"},
      {"molecule": "O=C(COc1ccc2ccccc2c1)Nc1nccs1", "Potency": "inconclusive [activator, partial curve]"},
      {"molecule": "CCN(C(=O)COC(=O)c1cccnc1)c1cccc2ccccc12", "Potency": "inconclusive [activator, partial curve]"},
      {"molecule": "O=S(=O)(c1ccc2ccccc2c1)N1CCN(C(=S)Nc2ccccc2F)CC1", "Potency": "inconclusive [activator, single point]"},
      {"molecule": "O=[N+]([O-])c1ccccc1Oc1ccccc1Cl", "Potency": "inconclusive [activator, single point]"},
      {"molecule": "Cc1nc(SCC(=O)Nc2ccccc2)c2oc3ccccc3c2n1", "growth rescue (activation)": "inactive: 14.2%"},
      {"molecule": "O=C(CSc1nc(-c2cccc(F)c2)[nH]c1-c1ccccc1)Nc1ccc2c(c1)OCCO2", "Potency": "inconclusive [activator, single point]"},
      {"molecule": "Fc1cccc(Cn2cc(C(=S)N3CCOCC3)c3ccccc32)c1", "Potency": "inconclusive [activator, single point]"},
      {"molecule": "Cc1cc(C)n(-c2nc3ccccc3c(=O)n2OCc2ccc(F)cc2)n1", "Potency": "inconclusive [activator, partial curve]"},
      {"molecule": "S=C1SCN(Cc2cccnc2)CN1Cc1cccnc1", "Potency": "inconclusive [activator, partial curve, poor fit]"},
      {"molecule": "O=C(Nc1c2c(nn1-c1ccc(Cl)cc1)CS(=O)(=O)C2)c1cccc(F)c1", "growth rescue (activation)": "inactive: 6.83%"},
      {"molecule": "O=C(Nc1ccccc1)c1nnn(Cc2ccccc2)c1NC(=O)C(F)(F)F", "Potency": "inconclusive [activator, single point]"},
      {"molecule": "O=C(Nc1ccc(N2CCN(C(=O)c3ccco3)CC2)cc1)c1cccc(F)c1", "Potency": "inconclusive [activator, partial curve, poor fit]"},
      {"molecule": "Cc1cccc(NC(=S)NNC(=O)c2ccccc2Br)c1", "Potency": "inconclusive [activator, single point]"},
      {"molecule": "Cc1ccc(-n2nnnc2SCn2nnc3ccccc3c2=O)cc1", "Potency": "inconclusive [activator, single point]"},
      {"molecule": "CCCOc1ccc(C(=O)Nc2ccc(NC(=O)c3ccccc3)c(Br)c2)cc1", "growth rescue (activation)": "inactive: 12.6%"},
      {"molecule": "COC(=O)C1=C(C)NC(C)=C(C(=O)OC)C1C1CC=CCC1", "note": "(stereo not given)", "growth rescue (activation)": "inactive: 35.8%"},
      {"molecule": "CCOC(=O)C1(CCOC)CCN(Cc2cc3ccccc3s2)CC1", "Potency": "inconclusive [activator, single point]"},
      {"molecule": "COc1ccc2cc(C(=O)C3CCCN(C(=O)c4cnn(C(C)C)c4)C3)ccc2c1", "note": "(stereo not given)", "Potency": "inconclusive [activator, single point]"},
      {"molecule": "Cc1ccc(NP(=O)(c2ccc(N(C)C)cc2NC(=O)c2cccs2)N2CCOCC2)cc1Cl", "note": "(stereo not given)", "growth rescue (activation)": "inactive: -7.59%"},
      {"molecule": "CSCc1cc(N2CCOCC2)nc(SCc2ccc(Cl)c(Cl)c2)n1", "Potency": "inconclusive [activator, single point]"},
      {"molecule": "Cc1cnc(NC(=O)C2(c3ccccc3)CC2)s1", "Potency": "inconclusive [activator, single point]"},
      {"molecule": "Cc1nnc(NC(=O)c2nc(SCc3ccccc3F)ncc2Cl)s1", "Potency": "active: 15.8 µM"},
      {"molecule": "O=C(O)c1ccc(COCC(F)(F)F)cc1", "Potency": "inconclusive [activator, single point]"},
      {"molecule": "CCC1CCCCN1C(=O)C1CC(c2cc(Cl)c(OC)cc2OC)=NO1", "note": "(stereo not given)", "Potency": "inconclusive [activator, single point]"},
      {"molecule": "Cc1nnc(N2C(=O)c3cccc4c([N+](=O)[O-])ccc(c34)C2=O)s1", "Potency": "active: 12.6 µM"},
      {"molecule": "CC1Oc2ccccc2N(CC(=O)NC2CCCCC2)C1=O", "note": "(stereo not given)", "growth rescue (activation)": "inactive: -13.7%"},
      {"molecule": "CC(=O)Nc1ccc(NC2=C(Cl)C(=O)c3ccccc3C2=O)cc1", "growth rescue (activation)": "inactive: -16.8%"},
      {"molecule": "CCOC(=O)c1[nH]c(C)c(C(=O)NC(CC)Cc2ccccc2)c1C", "note": "(stereo not given)", "Potency": "inconclusive [activator, full curve, poor fit]"},
      {"molecule": "Cc1cc(F)c(F)c(C(=O)N2C(C)CCCC2C)c1Cl", "note": "(stereo not given)", "Potency": "inconclusive [activator, partial curve]"},
      {"molecule": "CCN1CCN(c2ncnc3c2cnn3-c2ccc(C)c(C)c2)CC1", "growth rescue (activation)": "inactive: -11.6%"},
      {"molecule": "O=C(O)Cc1ccc(C(=O)c2cccs2)s1", "growth rescue (activation)": "inactive: 4.98%"},
      {"molecule": "Cc1cc2cc3c(cc2nc1SCC(=O)O)CCC3", "growth rescue (activation)": "inconclusive: -70.8% [activator]"},
      {"molecule": "COc1ccc(C(=O)Oc2ccc(/C=N/O)cc2)cc1", "Potency": "active: 10 µM"},
      {"molecule": "c1ccc(-c2csc3nnc(SCc4ccc5c(c4)OCCO5)n23)cc1", "Potency": "inconclusive [activator, single point]"},
      {"molecule": "Cc1ccc(-c2cc(-c3n[nH]c(=S)o3)c3ccccc3n2)cc1", "Potency": "inconclusive [activator, partial curve]"},
      {"molecule": "COc1ccc(CNc2cccc(F)c2)cc1Br", "Potency": "active: 12.6 µM"},
      {"molecule": "O=C(/C=C/c1cccc([N+](=O)[O-])c1)NCCSCc1ccc(Cl)cc1Cl", "Potency": "inconclusive [activator, partial curve]"},
      {"molecule": "Cc1c(C(=O)NCc2cccc([N+](=O)[O-])c2)sc(=O)n1Cc1cccc(F)c1", "Potency": "active: 17.8 µM"},
      {"molecule": "C[C@@H]1O[C@@H](O[C@H]2[C@H](Oc3cc(O)c4c(c3)O[C@H](c3ccc(O)cc3)CC4=O)O[C@H](CO)[C@@H](O)[C@@H]2O)[C@H](O)[C@H](O)[C@H]1O", "Potency": "inconclusive [activator, partial curve]"},
      {"molecule": "O=C(NCc1ccccc1Br)c1ccc2c(c1)OCCO2", "Potency": "active: 11.2 µM"},
      {"molecule": "Cc1ccc(C)c(C(=O)c2c(C)nc3sccn23)c1", "Potency": "inconclusive [activator, partial curve]"},
      {"molecule": "COc1cc2c(cc1OC)[C@H](C)N(C(=O)NCc1ccccc1)CC2", "Potency": "inconclusive [activator, single point]"},
      {"molecule": "COc1ccc2cc3cc(C(=O)N4CCN(c5ccccc5F)CC4)oc3nc2c1", "Potency": "inconclusive [activator, full curve, poor fit]"},
      {"molecule": "COc1cccc(OC)c1C(=O)OCC(=O)NC1CCCCCC1", "Potency": "inconclusive [activator, partial curve]"},
      {"molecule": "O=c1[nH]c(=O)n(C2CCCCC2)c(O)c1C1=Nc2ccccc2SC(c2ccc(Cl)cc2)C1", "note": "(stereo not given)", "growth rescue (activation)": "inactive: 20.4%"},
      {"molecule": "O=[N+]([O-])c1cccc(-c2nn(-c3ccccc3)cc2CO)c1", "Potency": "active: 12.6 µM"},
      {"molecule": "Cc1ccc(-c2cc(NC(=O)CCl)n(-c3ccccc3)n2)cc1", "Potency": "inconclusive [activator, single point]"},
      {"molecule": "O=c1c2ccccc2oc2ccc(-c3ccc4cc[nH]c4c3)cc12", "Potency": "inconclusive [activator, full curve]"},
      {"molecule": "CCCS(=O)(=O)N1CC(=O)N(c2ccc(C)cc2)C(C)(C(=O)NC2CCCCCC2)C1", "note": "(stereo not given)", "growth rescue (activation)": "inactive: 8.86%"},
      {"molecule": "CCn1c(=O)cc(OCC(=O)N2CCN(c3ccc(OC)cc3)CC2)c2ccccc21", "growth rescue (activation)": "inactive: 4.56%"},
      {"molecule": "Cc1cccc(-n2c(C)nc3cc(C(=O)NCCC4=CCCCC4)ccc32)c1", "Potency": "inconclusive [activator, partial curve, poor fit]"},
      {"molecule": "COCCNC(=O)c1cc2c(-c3ccccc3F)nn(C)c2s1", "Potency": "inconclusive [activator, single point]"},
      {"molecule": "O=C(Cn1c(=O)n(Cc2ccc3c(c2)OCO3)c(=O)c2oc3ccccc3c21)Nc1ccccc1F", "growth rescue (activation)": "inactive: -2.5%"},
      {"molecule": "Cc1noc(C)c1CSCC(=O)NCCN1C(=O)S/C(=C\\c2ccccc2F)C1=O", "Potency": "inconclusive [activator, partial curve]"},
      {"molecule": "CC(=O)Oc1c(Sc2ccccc2[N+](=O)[O-])c(C)nn1C(C)(C)C", "Potency": "inconclusive [activator, single point]"},
      {"molecule": "Cc1cccc(-n2ccnc2SCC(=O)Nc2cccc3ccccc23)c1C", "Potency": "active: 22.4 µM"},
      {"molecule": "COc1ccc(C(=O)Nc2ccc3c(c2)CCCN3C(=O)c2cccs2)c(OC)c1", "Potency": "inactive"},
      {"molecule": "COc1cc(OC)c(NC(=O)N2CCCn3nc(C)cc32)cc1Cl", "growth rescue (activation)": "inactive: 21.1%"},
      {"molecule": "CCOc1ccc(NC(=O)Cn2c(=O)c(CNc3ccc(CC)cc3)cc3cc4c(cc32)OCO4)cc1", "growth rescue (activation)": "inactive: 14.1%"}
    ]}
  ]
}
